From US8324133B2, “Fungicide 2-pyridyl-methylene-carboxamide derivatives” (Bayer Cropscience AG, priority 2005, dated 2012)
Some of these results come from one statement about several compounds together. At least one compound was matched to its structure with a doubt left.

How the values were obtained:
[1] = tested on: Pyrenophora teres; experiment: In vivo test on Pyrenophora teres (barley net blotch); settings: 500 ppm, barley plants treated 24 hours before contamination, grading 12 days after contamination
[2] = tested on: Puccinia recondita f. sp. tritici; experiment: In vivo test on Puccinia recondita f. sp. tritici (wheat brown rust); settings: 500 ppm, wheat plants treated 24 hours before contamination, grading 10 days after contamination
[3] = tested on: Alternaria brassicae; experiment: In vivo test on Alternaria brassicae (leaf spot of crucifers); settings: 500 ppm, radish plants treated 24 hours before contamination, grading 6 to 7 days after contamination
[4] = tested on: Erysiphe graminis f.sp. hordei; experiment: In vivo test on Erysiphe gramini (powdery mildew on barley); settings: 500 ppm, young barley plants, protective, evaluated 7 days after inoculation
[5] = tested on: Leptosphaeria nodorum; experiment: In vivo test on Leptosphaeria (leaf spot of wheat); settings: 500 ppm, young wheat plants sprayed before inoculation, evaluated 12-14 days after inoculation

| SMILES | protection [1] | protection [2] | protection [3] | disease control (protection) [4] | disease control (protection) [5] |
| --- | --- | --- | --- | --- | --- |
| Cc1cc(C(=O)N(Cc2ncc(C(F)(F)F)cc2Cl)C2CC2)c(C)o1 [Compound 5] | at least 70% | at least 60% | – | – | – |
| Cc1cc(C(=O)N(Cc2ncc(C(F)(F)F)cc2Cl)C2CC2)c(C(F)(F)F)o1 [Compound 6] | at least 70% | – | at least 70% | – | – |
| Cc1cc(C(=O)N(C2CC2)C(C)c2ncc(C(F)(F)F)cc2Cl)c(C(F)(F)F)o1 (stereo not drawn) [Compound 7] | at least 70% | – | at least 70% | – | – |
| CC(c1ncc(C(F)(F)F)cc1Cl)N(C(=O)c1sccc1I)C1CC1 (stereo not drawn) [Compound 12] | at least 70% | – | at least 70% | – | – |
| O=C(c1ccsc1I)N(Cc1ncc(C(F)(F)F)cc1Cl)C1CC1 [Compound 15] | at least 70% | – | – | – | – |
| CC(c1ncc(C(F)(F)F)cc1Cl)N(C(=O)c1ccsc1I)C1CC1 (stereo not drawn) [Compound 16] | at least 70% | – | at least 70% | – | – |
| Cc1nc(C(=O)N(C2CC2)C(C)c2ncc(C(F)(F)F)cc2Cl)c(C)o1 (stereo not drawn) [Compound 23] | – | – | at least 70% | – | – |
| Cc1nc(C(F)F)c(C(=O)N(Cc2ncc(C(F)(F)F)cc2Cl)C2CC2)s1 [Compound 26] | – | at least 60% | – | – | – |
| Cc1nc(C(F)F)c(C(=O)N(C2CC2)C(C)c2ncc(C(F)(F)F)cc2Cl)s1 (stereo not drawn) [Compound 27] | at least 70% | – | at least 70% | – | – |
| Cc1nc(C(F)(F)F)c(C(=O)N(C2CC2)C(C)c2ncc(C(F)(F)F)cc2Cl)s1 (stereo not drawn) [Compound 30] | at least 70% | – | at least 70% | – | – |
| CC(c1ncc(C(F)(F)F)cc1Cl)N(C(=O)c1cn(C)nc1C(F)F)C1CC1 (stereo not drawn) [Compound 35] | at least 70% | – | at least 70% | – | – |
| Cn1cc(C(=O)N(Cc2cc(C(F)(F)F)cc(Cl)n2)C2CC2)c(C(F)F)n1 [Compound 37] | at least 70% | – | – | – | – |
| CC(c1ncc(C(F)(F)F)cc1Cl)N(C(=O)c1cn(C)nc1C(F)(F)F)C1CC1 (stereo not drawn) [Compound 42] | at least 70% | – | at least 70% | – | – |
| Cc1nn(C)c(F)c1C(=O)N(Cc1ncc(C(F)(F)F)cc1Cl)C1CC1 [Compound 45, N-{[3-chloro-5-(trifluoromethyl)pyridin-2-yl]methyl}-N-cyclopropyl-5-fluoro-1,3-dimethyl-1H-pyrazole-4-carboxamide] | at least 70% | at least 60% | – | at least 70% | at least 70% |
| Cc1nn(C)c(F)c1C(=O)N(C1CC1)C(C)c1ncc(C(F)(F)F)cc1Cl (stereo not drawn) [Compound 46] | at least 70% | – | at least 70% | – | – |
| CCC(c1cc(C(F)(F)F)cc(Cl)n1)N(C(=O)c1c(C)nn(C)c1F)C1CC1 (stereo not drawn) [Compound 47] | at least 70% | – | – | – | – |
| Cn1nc(C(F)(F)F)c(C(=O)N(Cc2ncc(C(F)(F)F)cc2Cl)C2CC2)c1F [Compound 50] | at least 70% | at least 60% | at least 70% | at least 70% | at least 70% |
| Cc1nn(C)cc1C(=O)N(Cc1ncc(C(F)(F)F)cc1Cl)C1CC1 [Compound 55] | at least 70% | – | – | – | – |
| Cc1nn(C)cc1C(=O)N(C1CC1)C(C)c1ncc(C(F)(F)F)cc1Cl (stereo not drawn) [Compound 56] | – | – | at least 70% | – | – |
| O=C(NCc1ncc(C(F)(F)F)cc1Cl)c1cccs1 [example 2 of WO-01/11966, N-{[3-chloro-5-(trifluoromethyl)pyridin-2-yl]methyl}thiophene-2-carboxamide] | – | – | – | less than 30% | less than 30% |
| O=C(NCc1ncc(C(F)(F)F)cc1Cl)c1cnn(-c2ccccc2)c1C(F)(F)F [example 8 of WO-01/11966, N-{[3-chloro-5-(trifluoromethyl)pyridin-2-yl]methyl}-1-phenyl-5-(trifluoromethyl)-1H-pyrazole-4-carboxamide] | – | – | – | less than 30% | less than 30% |
| O=C(NCc1ncc(C(F)(F)F)cc1Cl)c1sc(Br)nc1C(F)(F)F [example 50 of WO-01/11966, 2-bromo-N-{[3-chloro-5-(trifluoromethyl)pyridin-2-yl]methyl}-4-(trifluoromethyl)-1,3-thiazole-5-carboxamide] | – | – | – | less than 30% | less than 30% |
